Molecules are shown by their SMILES. In all, about 340,000 compounds went through this assay and about 6,900 (2%) were called active. Rule as the data show it: active = inhibition above about 30%; inactive = below that, where a call was filed. This is a selection; strong and weak results do not stand in their true shares. Entries without a call were filed so in the source.

The experiment concerns the target D(2) dopamine receptor (Homo sapiens) (UniProt P14416). The experiment in a line: HTS Assay for Allosteric Antagonists of the Human D2 Dopamine Receptor: Primary Screen for Antagonists. Also: 0% is about no effect. As to conditions: HEK293 TREx D2 cells, calcium flux, dopamine EC80; at 10 µM; stronger effect = higher value. A digest of the protocol: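 Overnight-induced (tetracycline, 30 C) HEK293 T-REx cells carrying force-coupled D2 receive a no-wash calcium dye, then compound, then EC80 dopamine at 180 s; signals are read kinetically throughout.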
UniProt P14416, sequence (P14416 whole entry, looked up): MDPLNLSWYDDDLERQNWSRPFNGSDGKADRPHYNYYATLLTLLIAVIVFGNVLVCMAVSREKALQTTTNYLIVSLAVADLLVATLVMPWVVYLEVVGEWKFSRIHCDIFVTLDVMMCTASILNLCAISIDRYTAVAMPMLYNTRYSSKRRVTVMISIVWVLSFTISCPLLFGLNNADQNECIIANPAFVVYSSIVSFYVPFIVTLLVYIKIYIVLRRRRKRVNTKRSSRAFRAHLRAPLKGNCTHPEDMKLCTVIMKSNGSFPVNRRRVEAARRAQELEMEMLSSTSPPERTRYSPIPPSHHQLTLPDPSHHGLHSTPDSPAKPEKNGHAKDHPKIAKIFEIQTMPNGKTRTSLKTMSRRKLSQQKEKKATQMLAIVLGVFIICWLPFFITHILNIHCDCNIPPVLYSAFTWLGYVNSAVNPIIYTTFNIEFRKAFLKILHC
As to `COc1ccc(Cn2c(=O)[nH]c3cc(C(=O)NC4CCN(Cc5ccccc5)CC4)ccc32)cc1`, the inhibition is active: 75.5%. In the case of `O=C(Cn1c(=O)c2ccccc2n(CC(=O)Nc2ccc(Cl)cc2)c1=O)NCCc1ccccc1` it was -14%.

`CCOC(=O)c1c(C)[nH]c(CCC(=O)NCCCN2CCN(c3cc(Cl)ccc3C)CC2)c1C`: the inhibition was 21.8%. Next, `CCCCN(C)CCNC(=O)C1CCCN(S(=O)(=O)c2ccc3c(c2)oc(=O)n3C)C1` (stereo unspecified): -15.7%; `Cc1cc(-c2ccc(C)c(S(=O)(=O)Nc3ccccc3C(F)(F)F)c2)on1`: 3.21%. Next, `COc1ccc(C(=O)N(Cc2ccc(N(C)C)cc2)Cc2ccco2)cc1Cl`: 2.54%; `Cc1ccc2c(CC(=O)NCc3ccccc3)coc2c1C`: 0.367%; `Cc1ccc(C)n1-c1c(C(=O)NCC(C)c2ccccc2)sc2ncccc12` (stereo unspecified): -4.67%. In the case of `O=c1c2sc3ccccc3c2n(Cc2ccccc2Cl)c(=O)n1Cc1ccccc1` it was -9.18%. In the case of `COc1ccc(CNC(=O)Cn2c(=O)oc3cc(S(=O)(=O)N4CCC(C)CC4)ccc32)cc1`, the inhibition was -10.4%. As for `Cc1ccc(Cl)cc1-n1c(=O)c2sc3ccccc3c2n(CC(=O)NC2CCCCC2)c1=O`, the inhibition was found to be 15.1%. Next, `Cc1cccc(C)c1NC(=O)c1nc(S(C)(=O)=O)ncc1N(Cc1ccc(F)cc1)Cc1ccco1`: 13%; `COc1cccc(CNC(=O)CN2C(=O)CSc3c2c(C)nn3-c2ccccc2)c1OC`: 15.5%. On to `CCOC(=O)c1cnc2c(C)cc(C)cc2c1NCCc1ccc(OC)c(OC)c1`, for which the inhibition was -5.95%.

For the compound `Cc1cc(C)c(C#N)c(SCc2ccccc2C)n1`, the inhibition is active: 34%.

For `CCc1ccc(NC(=O)c2ccc(F)c(S(=O)(=O)NC3CCCCCC3)c2)cc1`, the inhibition is -7.68%. With `CC(=O)c1c(C)[nH]c(C(=O)OCCCCN2C(=O)c3ccccc3C2=O)c1C`, the inhibition was active: 47.7%. In the case of `Cc1c(Cl)cccc1NC(=O)CN1C(=O)COc2ccc(S(=O)(=O)N3CCCCCC3)cc21` it was -8.33%. Next, `CCOc1ccccc1NC(=O)c1sc2nc(C)cc(C)c2c1N`: -4.84%.

Turning to `Cc1coc2c(C)c3oc(=O)c(CC(=O)NCc4ccccc4)c(C)c3cc12`, the inhibition stood at 5.84%. Next, `COc1ccc(Br)cc1/C=C/C(=O)Nc1ccc(C)cc1`: active: 73.6%. In the case of `CN1CCN(C(=O)c2ccc3c(c2)N(Cc2cccc(Cl)c2)C(=O)c2ccccc2S3(=O)=O)CC1` it was 4.61%; in that of `O=C(Nc1ccc2nc(SCCOc3ccccc3)sc2c1)c1cccs1`, -2.48%. In the case of `COc1ccccc1CNC(=O)C1CCN(S(=O)(=O)c2c(C)noc2/C=C/c2c(C)cc(C)cc2C)CC1`, the inhibition worked out at 18.6%. In the case of `O=C(Nc1ccccc1F)c1nc(SCc2ccc(F)cc2)ncc1Cl` it was -2.86%. With `CCCOc1ccccc1C(=O)N1CCCCC1CCN1CCOCC1` (stereo unspecified), the inhibition was found to be 5.4%. In the case of `CCN(C(=O)Cn1ncc2c(=O)oc3ccc(C)cc3c21)c1cc(OC)ccc1OC` it was 8.76%; in that of `Cc1cc(C(F)F)n2nc(C(=O)Nc3cc(Cl)ccc3C)nc2n1`, 7.61%. In the case of `CCOC(=O)C1CCCN(S(=O)(=O)c2ccc(N3CCCCS3(=O)=O)cc2)C1` (stereo unspecified) it was -4.02%. Take `CC1CCc2noc(NC(=O)c3ccccc3[N+](=O)[O-])c2C1` (stereo unspecified): the inhibition stood at 8.78%.

As for `CCc1nnc(NC(=O)CSc2nnc(CNc3ccc(Cl)cc3)o2)s1`, the inhibition is active: 49.9%.

On to `Cc1ccc(-n2nnc(-c3nsc(NC(=O)c4ccccc4)n3)c2C)cc1`, for which the inhibition is -5.97%.

For `CCc1cccc(C)c1NS(=O)(=O)c1cc(-c2cc(C)no2)ccc1C`, the inhibition was 3.02%.

Consider `CCOc1ccc(OCC(=O)NCCS(=O)(=O)N2CCN(c3ccc(F)cc3)CC2)cc1`, for which the inhibition is -10.5%. `Cc1ccc(-n2nc3ccc(NC(=O)c4oc5ccc(C)cc5c4C)cc3n2)cc1`: the inhibition came to 19.3%.

With `O=C(COc1ccc(/C=N/NC(=O)c2ccncc2)cc1)Nc1ccc([N+](=O)[O-])cc1`, the inhibition was active: 42.4%. In the case of `O=C(CCC1CCCC1)N1CCc2c([nH]c3ccccc23)C1c1ccc(Cl)cc1` (stereo unspecified) it was 13.2%; in that of `COc1cccc(NC(=O)CSc2nnc(COc3ccc(Cl)cc3)o2)c1`, 1.38%; in that of `Cc1nnc2c(N3CCN(c4ccccc4F)CC3)nc3ccccc3n12`, 6.22%. Next, `COc1ccc(NC(=O)NCCc2c(C)nn(C)c2C)c(OC)c1`: -0.393%; `CCOC(=O)c1cc(-c2ccc(C)cc2)n(CCC(=O)Nc2nc3c(C)cccc3s2)c1C`: 1.67%. In the case of `Cc1cc(-n2c(SCC(=O)NCc3ccccc3)nc3ccsc3c2=O)ccc1Cl` it was 19.9%. With `COc1ccc(-c2ccc(-c3noc(-c4ccccc4)n3)c(OC)n2)cc1`, the inhibition was active: 31.3%. Next, `Cc1ccc2c(c1)c(=O)c1ccccc1n2CCCC(=O)Nc1ccc(C)c(F)c1`: -2.22%.

For `COc1cccc(Cn2c(=O)n(CC3CCC(C(=O)N4CCCCC4)CC3)c(=O)c3sccc32)c1` (stereo unspecified), the inhibition is 2.44%. In the case of `CCCCn1c(SCC(=O)Nc2cccc(OC)c2)nc2c(sc3ccccc32)c1=O` it was -19.2%; in that of `COc1ccccc1N1CCN(C(=O)C2CCN(S(=O)(=O)c3c(C)noc3/C=C/c3ccc(C)cc3)CC2)CC1`, -17.1%; in that of `Cc1cccc(Cc2cnc(NC(=O)C3Cc4ccc(C)cc4C(=O)O3)s2)c1` (stereo unspecified), 13.2%. Next, `CCOc1ccc(CCNC(=O)c2sc3nc4n(c(=O)c3c2C)CCC4)cc1OCC`: active: 30.2%; `CCOC(=O)N1CCN(Cc2nc3cc(NC(C)=O)ccc3n2C(C)C)CC1`: -5.13%.

`CC(C)NC(=O)CCn1c(SCc2c(F)cccc2Cl)nc2c(sc3ccccc32)c1=O`: the inhibition is -12.7%. Next, `COc1cccc(CCNC(=O)Cn2c(-c3cccs3)cc3ccccc32)c1`: 10%.

As to `Cc1cc(C)c(-c2cc(C(F)(F)F)no2)c(=O)[nH]1`, the inhibition was active: 32.3%. In the case of `COc1ccc(NC(=O)CN2C(=O)C(c3ccc(C(C)(C)C)cc3)=NC2(C)C)cc1Cl` it was -11.8%; in that of `Cc1ccc(C)c(N2CCN(C(=O)Nc3cn(CC(C)C)c(=O)c4ccccc34)CC2)c1`, -0.227%.

For `CCN(CC)CCn1c(NCc2ccc(OC)cc2)nc2ccccc21`, the inhibition was active: 74.7%. In the case of `CCCCCC(=O)N1c2ccccc2C(C)(c2ccccc2)CC1(C)C` (stereo unspecified) it was -20.8%; in that of `O=C(c1ccccc1Br)N(Cc1ccco1)C1CCS(=O)(=O)C1` (stereo unspecified), -2.87%. Next, `CC(C)(C)C(=O)NC(=S)NNC(=O)c1sc2ccccc2c1Cl`: active: 56.6%; `O=C(c1ccc2c(c1)N(Cc1ccccc1)C(=O)c1ccccc1S2(=O)=O)N1CCCC1`: -20.3%. In the case of `CCC(Sc1nc2c(sc3ccccc32)c(=O)n1CCc1ccccc1)C(=O)N(CC)CC` (stereo unspecified) it was 10.1%.

The inhibition is the change of the read-out against control, counted positive when it falls.
